# According to the supplement of paper PMC10126150:
# Values marked as one replicate rest on one cluster of the flow cell; about a third of the high ones do not repeat.
# Tested on: ATP
# Assay: switch fluorescence ratio, 500 uM ATP over buffer (Cy3 cluster intensity, sum of 5 cycles each) (fold (ratio)); higher = stronger signal-on switching upon ATP binding; sequences stand for … in TCGTCGGCAGCGTCAGATGTGTATAAGAGACAGTTTTTTTTTTTTTTTTTTTTTTTTT…TC
# Conditions: aptamer strand: ATP DNA aptamer (quencher-CACCTGGGGGAGTATTGCGGAGGAAGG + anchor), 100 nM annealed; ATP concentration: 500 uM; one replicate
# Method in brief: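 Clusters carrying Cy3-labelled switching strands on a modified Illumina MiSeq flow-cell were annealed to 100 nM quencher-labelled ATP aptamer and imaged in selection buffer. They were imaged again after 15 min with 500 uM ATP at 22 °C, over five buffer/ATP cycles with NaOH stripping and re-annealing in between. For each cluster, the fluorescence ratio is the summed Cy3 intensity of the target cycles divided by that of the buffer cycles, averaged per switch-domain sequence. Clusters outside 100-1000 RFU were left out.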
# 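Also: ATP exposure 15 min at 22 °C before imaging.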
row,Sequence,switch fluorescence ratio
1,TCGGTACTAA,0.973
2,TCGGTATAAG,0.98
3,TCGGTATTAG,1
4,TCGGTCCGTG,0.967
5,TCGGTCTTCA,0.991
6,TCGGTGCATT,1.06
7,TCGGTGGATG,0.987
8,TCGGTTAAC,1.07
9,TCGGTTACGT,1.01
10,TCGGTTATTA,1.02
11,TCGTAAGATT,1
12,TCGTAATTTA,1
13,TCGTACAGGT,1.04
14,TCGTACGGGG,1.03
15,TCGTACTTTC,1.07
16,TCGTATCGGT,0.976
17,TCGTATCTTT,0.961
18,TCGTATGAGG,0.99
19,TCGTATGGAC,1.04
20,TCGTATTAAC,1.1
21,TCGTATTCCT,1.02
22,TCGTCAGTA,1.01
23,TCGTCTAAGT,1.01
24,TCGTCTATCG,0.976
25,TCGTCTATTC,1.18
26,TCGTCTCACG,0.987

row,Sequence,switch fluorescence ratio
1,TCGTCTTGCT,1.02
2,TCGTGATCGC,1.01
3,TCGTGGCCTG,1.02
4,TCGTGGGCTG,0.96
5,TCGTGGGCTT,0.981
6,TCGTGGGGCG,0.939
7,TCGTTATCG,0.997
8,TCGTTCGGTA,1.01
9,TCGTTCGTTG,1.01
10,TCGTTCTCGC,1.06
11,TCGTTGAACT,0.986
12,TCGTTGCCCT,1.07
13,TCGTTGGTCT,0.959
14,TCGTTTCTGC,1.08
15,TCGTTTGTAA,1.06
16,TCGTTTTTGT,0.958
17,TCTAAACCAT,1.01
18,TCTAAATGAA,1.01
19,TCTAACCTTA,1.1
20,TCTAACCTTT,1.11
21,TCTACAAAAA,0.988
22,TCTACCACAT,1.04
23,TCTAGACGCA,1.07
24,TCTAGCTTCG,1.04
25,TCTAGGACT,1.05
26,TCTATGCCAG,1.02

row,Sequence,switch fluorescence ratio
1,TCTATTAGCG,0.941
2,TCTCAACTGT,0.958
3,TCTCAATCAG,0.988
4,TCTCAATGAA,1.08
5,TCTCAGAGAG,1.03
6,TCTCCATAAT,1.39
7,TCTCCCCGGG,3.33
8,TCTCCCGGAT,1.08
9,TCTCCCGTAT,1.14
10,TCTCCTGTGT,1.04
11,TCTCGAAAGG,0.963
12,TCTCGAGGCC,1
13,TCTCGAGGGC,0.989
14,TCTCGCGAG,0.977
15,TCTCGTAATA,3.15
16,TCTCTACCTG,1.03
17,TCTCTAGGGA,1.01
18,TCTCTGATTC,1.03
19,TCTCTTGTGT,0.978
20,TCTGAAGGCT,1.05
21,TCTGAGCCTT,1.02
22,TCTGAGGCAC,1.17
23,TCTGAGTCAT,1.02
24,TCTGAGTTGC,0.995
25,TCTGATGAAA,1
26,TCTGCAAAGA,1.04

row,Sequence,switch fluorescence ratio
1,TCTGCACGTG,1.04
2,TCTGCGGACT,1.11
3,TCTGCTGGCT,1.04
4,TCTGGACCGA,0.998
5,TCTGGACTGA,1.07
6,TCTGGATGGA,0.997
7,TCTGGCCTCG,0.984
8,TCTGGCGTCG,1.02
9,TCTGGGAGAG,1.2
10,TCTGGGCGTA,1.01
11,TCTGGTAAAG,1.01
12,TCTGGTAGGC,1.03
13,TCTGGTTTAT,0.983
14,TCTGTCAGAT,1.03
15,TCTGTCATCT,0.985
16,TCTGTCCGCG,1.12
17,TCTGTGCGG,0.994
18,TCTGTGGGCC,0.995
19,TCTGTGTGTT,1.05
20,TCTGTTCCCC,1.28
21,TCTGTTCCG,1.01
22,TCTGTTCTTA,1
23,TCTTAAACCT,2.59
